Here are results for 42 sequences from PMC7819943, “Rice protein-binding microarrays: a tool to detect cis-acting elements near promoter regions in rice”.

The list shows a part of the results.

The experiment deals with T1, OsWOX13 (Oryza sativa, UniProt Q5QMM3 1-267).
T1 sequence: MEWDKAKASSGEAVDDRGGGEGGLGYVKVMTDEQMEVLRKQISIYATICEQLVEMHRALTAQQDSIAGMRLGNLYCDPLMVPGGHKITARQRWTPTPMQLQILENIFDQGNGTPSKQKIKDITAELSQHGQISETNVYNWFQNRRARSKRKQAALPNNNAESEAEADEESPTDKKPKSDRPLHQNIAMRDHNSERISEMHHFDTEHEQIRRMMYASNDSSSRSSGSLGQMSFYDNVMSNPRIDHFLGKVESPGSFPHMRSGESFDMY
Put plainly: protein-binding microarray (RPBM); PBS, 2% BSA, 51.3 ng/ul salmon testes DNA, 50 uM zinc acetate, 200 nM TF, 25 C, 1 h; high values mean tight binding. Particulars: protein: recombinant; tags: N-terminal polyhistidine and DsRed monomer fusion (pET32a); label: CyDye5-dUTP incorporated in the synthesized complementary strand; 3' TTTTT single-stranded linker to array surface; dsDNA, one strand shown. The gist of the method:
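Ni–NTA purification followed expression in E. coli BL21-CodonPlus of transcription factors fused N-terminally to a polyhistidine tag and DsRed. At 200 nM in PBS with 2% BSA, salmon testes DNA and 50 µM zinc acetate, the protein was incubated for 1 h at 25 °C with a custom Agilent array that had been primer-extended with Cy5-dUTP and blocked with 2% BSA. After washing, the array was read on an Axon 4000B scanner. The binding signal is per-feature fluorescence intensity in arbitrary units.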
“TTCAAGTTTGATTTGTGCTAAACAAGACCAATGTGCTAGACGGAGTCACCTAGTGCAG”: the binding signal is 5640 fluorescence intensity (a.u.). Then “TTTGAAATTGCTACATCAACCAATTATGGCGTTGTCTTGGCGGAGTCACCTAGTGCAG”, with 8250 fluorescence intensity (a.u.). Then “CTAAAATTTAAATTTTAAACCTTAGTTTTAGAGTTGATTTCGGAGTCACCTAGTGCAG”, with 18500 fluorescence intensity (a.u.); and “AATCAACTAACTAATCATGGGATTAACCAAAACTAATTCTCGGAGTCACCTAGTGCAG”, with 3800 fluorescence intensity (a.u.). Turning to “ACTTTAATTTACAACTATATCTAGATTCATTAACATCTATCGGAGTCACCTAGTGCAG”, the binding signal is 22100 fluorescence intensity (a.u.). Consider “ATATGTAATTTGTTTTGTTATTAGACTATGTTTAATAATTCGGAGTCACCTAGTGCAG”, for which the binding signal was 11200 fluorescence intensity (a.u.). Then “ACGATTGAAATGTAATGTACGTCCCATAGTTTCGCAGTGGCGGAGTCACCTAGTGCAG”, with 24900 fluorescence intensity (a.u.); and “AGACAAAATTATTATGGAAATATATTCAATTATTGATTTGCGGAGTCACCTAGTGCAG”, with 6760 fluorescence intensity (a.u.); and “GACTAATTGGTGGATGCATGAACCGACGTGTCGATTTTCACGGAGTCACCTAGTGCAG”, with 22200 fluorescence intensity (a.u.). As for “GATTAATTAGACTTAATAAATTCGTCTCGTGGTTTACTAACGGAGTCACCTAGTGCAG”, the figure is 37900 fluorescence intensity (a.u.); as for “TTAGTTACTAAATTAAACTAATGACTTTCTCTTTGTTGCCCGGAGTCACCTAGTGCAG”, 7750 fluorescence intensity (a.u.); as for “CCCAGTGACAGATCAAAGAATTGCACCAGTGCCACTGCCACGGAGTCACCTAGTGCAG”, 7030 fluorescence intensity (a.u.). As for “ACAGATTTGTGACAAATCCAGTCCACTCCAACGCATGGACCGGAGTCACCTAGTGCAG”, the figure is 5300 fluorescence intensity (a.u.); as for “CCAGCATAATTAGCTCTGCTAATGGGACACCGTAACTAGACGGAGTCACCTAGTGCAG”, 18000 fluorescence intensity (a.u.); as for “AAATTGATAATGAGTGATGATCGGTACCTGTAAACTGTGGCGGAGTCACCTAGTGCAG”, 15100 fluorescence intensity (a.u.).

Regarding “CTAAACTTCTAATGACGGGAACTAAACGCACCCTCAGTCACGGAGTCACCTAGTGCAG”, the binding signal is 9300 fluorescence intensity (a.u.). Turning to “CAAATTGAACATTCACTATTAGGCCCGAACTCACGATATGCGGAGTCACCTAGTGCAG”, the binding signal was 10900 fluorescence intensity (a.u.). As for “AAGGTGATGAATTCATCAACAGCTATAGCTGATAGATCAGCGGAGTCACCTAGTGCAG”, the figure is 3670 fluorescence intensity (a.u.). For “TATTGTATAGATTTATTTAATCATTTTGATGTTAACATGTCGGAGTCACCTAGTGCAG”, the binding signal was 3350 fluorescence intensity (a.u.). Then “TGTAATTAGCACTTCTTAACTAAGTGTTTGGTCTTTCGGTCGGAGTCACCTAGTGCAG”, with 24200 fluorescence intensity (a.u.). For the sequence “GAATATGTGATTTGCTCGTCAATTCCCCAGTTAGTTGCAGCGGAGTCACCTAGTGCAG”, the binding signal was 33200 fluorescence intensity (a.u.). Consider “CCGAAATTTTGGTTTTCTAATATTTTGAATTTGGTTAAAGCGGAGTCACCTAGTGCAG”, for which the binding signal is 5360 fluorescence intensity (a.u.). Then “ATGCTTAATTTGCAACCTAGGTATTGTGAGCTGTCCGGGCCGGAGTCACCTAGTGCAG”, with 23400 fluorescence intensity (a.u.). Then “AGTTATAATGGAATTAATTATAATTATAGTATAGTTAGATCGGAGTCACCTAGTGCAG”, with 28600 fluorescence intensity (a.u.). Then “CCTAACCAATTGAATTATACTCACTTTACAAATAGATCATCGGAGTCACCTAGTGCAG”, with 3480 fluorescence intensity (a.u.); and “AAAATATATAATTATTATTTATTTTATTATGGCCTAAATTCGGAGTCACCTAGTGCAG”, with 13800 fluorescence intensity (a.u.); and “CTTCGTCAATCCCAATATATGATGGATCAGTCTTTCACATCGGAGTCACCTAGTGCAG”, with 17100 fluorescence intensity (a.u.). “CATTTCCGAGTTGATTAATTTGCAACCATCATGCATCCATCGGAGTCACCTAGTGCAG”: the binding signal is 17700 fluorescence intensity (a.u.).

Turning to “ACTAATTAATCAACCTATCCTAGTGAACATTTGGAAACTTCGGAGTCACCTAGTGCAG”, the binding signal is 34800 fluorescence intensity (a.u.). As for “TTGGTTGGTCGAGGTTGATCTAACGCAGCCATTAGTCAAACGGAGTCACCTAGTGCAG”, the figure is 42400 fluorescence intensity (a.u.); as for “GAGTTGACAGAGTCAGCAATGCATGCTGCATAGTCAGATTCGGAGTCACCTAGTGCAG”, 3900 fluorescence intensity (a.u.); as for “GTATTAATTGGGGTGATTCATGACAACGATGAGATATTAACGGAGTCACCTAGTGCAG”, 32700 fluorescence intensity (a.u.). In the case of “ACTTTTCAGTTACATCATCTCTAATTTCAATTGAAATCCACGGAGTCACCTAGTGCAG”, the binding signal is 7120 fluorescence intensity (a.u.). As for “CTGATCGATCAAAGTGAATTGAATTGAAGTGAAAGCCAACCGGAGTCACCTAGTGCAG”, the figure is 3620 fluorescence intensity (a.u.); as for “ATGAAATCCATTGATTAACCGATAAAATTCAATGAAATCTCGGAGTCACCTAGTGCAG”, 4300 fluorescence intensity (a.u.); as for “TTGTTGACAGGTATATTGTCTATGTATTCTAGGATTTTGACGGAGTCACCTAGTGCAG”, 10200 fluorescence intensity (a.u.). As for “GCTGACAGGGACAATCGGATGGAGCAGAATGTCTGAACGTCGGAGTCACCTAGTGCAG”, the figure is 11000 fluorescence intensity (a.u.). Then “ATAATATGTAATTACCATATTTCTAAATATATCGATATTTCGGAGTCACCTAGTGCAG”, with 13300 fluorescence intensity (a.u.); and “TCTGATAAATTTTAAGGCCTGTAGGTTTAAGGAAACATAGCGGAGTCACCTAGTGCAG”, with 9420 fluorescence intensity (a.u.).

Regarding “GAGCTCGTCACTGTCAATTGACAAAATTCAGTAGCAAATCCGGAGTCACCTAGTGCAG”, the binding signal was 11200 fluorescence intensity (a.u.). As to “GAAAATTGTTCATATTACCTCCTAAGGTGGTTTTGCATATCGGAGTCACCTAGTGCAG”, the binding signal is 4340 fluorescence intensity (a.u.).

Take “AGGGATGACTGATGAACTTGTTCCTTCAGTTACACGCGCACGGAGTCACCTAGTGCAG”: the binding signal is 12500 fluorescence intensity (a.u.).
